PubChem BioAssay AID2060484 (Molecular Pharmacology Branch, DTP, NCI, 2025)
For part of its entries the source gives two or more results. This is not the full list of results. An entry can have further records. The values listed for one entry are repeats across runs, samples, wells, individuals or studies. Additions like (4×) say how often a value occurs here.

Test system: SUM149PT spheroids with HUVEC/MSC, viability
Assay: Anticancer human tumor SUM149PT cell line growth inhibition [GQUAD];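 note: spheroids exposed to drugs for seven days before readout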;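 for viability, T/C: percent viability relative to DMSO vehicle control taken as 100%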
Conditions: for viability, T/C: stronger effect = lower value; for IC50: compound alone
Description: DNA G-quadruplex Stabilizer Agents in Combinations in Complex Spheroids
A high-throughput screen of multi-cell type tumor spheroids was designed to identify active combinations of DNA G-quadruplex stabilizer agents and targeted small molecules. Complex spheroids include a stromal component modeled by human endothelial cells (HUVEC) and fibroblasts modeled by human mesenchymal stem cells (MSCs). The concentration ranges selected for each drug and investigational agent were based upon clinically achievable concentrations if the clinical Cmax of the agent was known.
Compounds. The drugs and investigational agents: pidnarulex (CX-5461; NSC782164), APTO-253 (NSC789042), BRACO-19 (NSC847499), peposertib (NSC802822), ceralasertib (NSC780249), elimusertib (NSC800525), camonsertib (NSC841442), AZD-1390 (NSC803789), olaparib (NSC753686), talazoparib (NSC767125), ART-558 (NSC835418), sotorasib (NSC818433), MRTX-1133 (NSC836407), SN-38 (NSC673596), topotecan (NSC609699), etoposide (NSC141540), doxorubicin (NSC123127), gemcitabine (NSC613327), 5-fluorouracil (NSC19893), paclitaxel (NSC125973), vemurafenib (NSC761431), panobinostat (NSC761190), R-306465 (JNJ-16241199; NSC773264), adavosertib (NSC754352), TP-3654 (NSC805149), carboplatin (NSC241240), KSQ-4279 (NSC840948), and staurosporine (NSC755774) were obtained from the National Cancer Institute (NCI) Developmental Therapeutics Program Chemical Repository (34). The FDA-approved anticancer drug set is available from the NCI Developmental Therapeutics Program. […] The stock solutions were prepared in dimethyl sulfoxide (DMSO, Sigma-Aldrich, St. Louis, MO, cat. D2650) at 800-fold the tested concentration and stored at -70 degrees C prior to their use. All drugs and investigational agents were tested over a range starting from a high concentration at or near the clinical Cmax and decreasing in half-log increments. If the clinical Cmax for an agent had not been determined, the highest concentration tested was 10 microM.
2.3 Cell Culture. All cells were maintained in an incubator at 37 degrees C and 5% CO2 with 95% humidity. The PDC lines were cultured according to standard operating procedures established by the NCI PDMR. All PDCs were thawed and cultured in Matrigel-coated flasks prepared with a working solution of 1X Ham's F-12 nutrient mix, without supplementation (Invitrogen, cat. 11765054), 100 U/mL penicillin-streptomycin (Invitrogen, cat. 15140122), and 2.5% Matrigel (Corning Inc., cat. 354248) for the first three passages. The 857933-349-R-J2-PDC line was cultured in 6C/Colon 1B media, which includes advanced DMEM/F-12 (Thermo Fisher Scientific, cat. 12634028), 10 mM HEPES (Thermo Fisher Scientific, cat. 15630080), 1X GlutaMAX supplement (Thermo Fisher Scientific, cat. 35050061), 0.1 mg/mL primocin (InvivoGen, cat. ant-pm-2), 10% defined fetal bovine serum, heat inactivated (HyClone Laboratories Inc., cat. SH30070.03HI), 50% L-WRN conditioned media (ATCC, cat. CRL-3276), 1.25 mM N-Acetyl-L-cysteine (Sigma-Aldrich, cat. A9165), 10 mM nicotinamide (Sigma-Aldrich, cat. N0636), 1X B-27 supplement (Thermo Fisher Scientific, cat. 17504044), 1X N-2 supplement (Thermo Fisher Scientific, cat. 17502048), 10 microM Y-27632 dihydrochloride (Tocris Bioscience, cat. 1254), and 50 ng/mL human EGF recombinant protein (Thermo Fisher Scientific, cat. PHG0311). […]

Question: `Cc1[nH]c2ccc(F)cc2c1-c1nc2c3cccnc3c3ncccc3c2[nH]1` was tested. Which viability, T/C (compound alone 0.0316 µM) did it give?
Answer: Its viability, T/C is 103, 98.7, 99 (2×), 97, 84, 99.8, 94.4, 94.8, 97.4, 102, 110%.

Question: What about the viability, T/C (compound alone 3.16 µM) of the same molecule?
Answer: Its viability, T/C is 107, 101, 90.1, 80, 84.5, 102, 83.7, 88.3, 99.4, 98, 95.8, 91.6%.

Question: How did the viability, T/C (compound alone 10 µM) turn out when `Cc1cnc(CNC(=O)c2c(=O)c3ccc(N4CCCN(C)CC4)nc3n3c2sc2ccccc23)cn1` was run?
Answer: Its viability, T/C is 0.15, 31.8, 0.26, 8.83, 31.1, 0.24, 1.36, 0.17, 28.8, 13.1, 0.28, 0.34%.

Question: `CCc1c2c(nc3ccc(O)cc13)-c1cc3c(c(=O)n1C2)COC(=O)[C@]3(O)CC` was tested. Which IC50 did it give?
Answer: Its IC50 is 1.68 nM, 2.76 nM, 17.9 nM.

Question: How did the IC50 turn out when `C#Cc1c(F)ccc2cc(O)cc(-c3ncc4c(N5CC6CCC(C5)N6)nc(OCC56CCCN5CC(F)C6)nc4c3F)c12` (stereo not given) was run?
Answer: The IC50 was 576 nM, 7.72 µM, 4.36 µM.
